Laboratory results: patent US9200265B2, “Anti-cocaine compositions and treatment” (priority 2006, dated 2015)

Tested on: cocaine-induced lethality
Test: Rodent model of acute cocaine toxicity (convulsions and lethality) in rats
Settings: 1 mg i.v. one minute before 180 mg/kg cocaine i.p.

Row | Molecule | protective effect against cocaine (convulsions and lethality)
1 | Ser117Ala (protein, UniProt Q9L9D7 1-574, looked up, variant S117A) Cocaine esterase: MVDGNYSVASNVMVPMRDGVRLAVDLYRPDADGPVPVLLVRNPYDKFDVFAWSTQSTNWLEFVRDGYAVVIQDTRGLFASEGEFVPHVDDEADAEDTLSWILEQAWCDGNVGMFGVAYLGVTQWQAAVSGVGGLKAIAPSMASADLYRAPWYGPGGALSVEALLGWSALIGTGLITSRSDARPEDAADFVQLAAILNDVAGAASVTPLAEQPLLGRLIPWVIDQVVDHPDNDESWQSISLFERLGGLATPALITAGWYDGFVGESLRTFVAVKDNADARLVVGPWSHSNLTGRNADRKFGIAATYPIQEATTMHKAFFDRHLRGETDALAGVPKVRLFVMGIDEWRDETDWPLPDTAYTPFYLGGSGAANTSTGGGTLSTSISGTESADTYLYDPADPVPSLGGTLLFHNGDNGPADQRPIHDRDDVLCYSTEVLTDPVEVTGTVSARLFVSSSAVDTDFTAKLVDVFPDGRAIALCDGIVRMRYRETLVNPTLIEAGEIYEVAIDMLATSNVFLPGHRIMVQVSSSNFPKYDRNSNTGGVIAREQLEEMCTAVNRIHRGPEHPSHIVLPIIKR | no protective effects
2 | Tyr44Phe (protein, UniProt Q9L9D7 1-574, looked up, variant Y44F) Cocaine esterase: MVDGNYSVASNVMVPMRDGVRLAVDLYRPDADGPVPVLLVRNPFDKFDVFAWSTQSTNWLEFVRDGYAVVIQDTRGLFASEGEFVPHVDDEADAEDTLSWILEQAWCDGNVGMFGVSYLGVTQWQAAVSGVGGLKAIAPSMASADLYRAPWYGPGGALSVEALLGWSALIGTGLITSRSDARPEDAADFVQLAAILNDVAGAASVTPLAEQPLLGRLIPWVIDQVVDHPDNDESWQSISLFERLGGLATPALITAGWYDGFVGESLRTFVAVKDNADARLVVGPWSHSNLTGRNADRKFGIAATYPIQEATTMHKAFFDRHLRGETDALAGVPKVRLFVMGIDEWRDETDWPLPDTAYTPFYLGGSGAANTSTGGGTLSTSISGTESADTYLYDPADPVPSLGGTLLFHNGDNGPADQRPIHDRDDVLCYSTEVLTDPVEVTGTVSARLFVSSSAVDTDFTAKLVDVFPDGRAIALCDGIVRMRYRETLVNPTLIEAGEIYEVAIDMLATSNVFLPGHRIMVQVSSSNFPKYDRNSNTGGVIAREQLEEMCTAVNRIHRGPEHPSHIVLPIIKR | no protective effects
